The compounds below were run against recombinant human TPH2 (Swiss-Prot: Q8IWU9) (Homo sapiens (Human), UniProt Q8IWU9) (assay: In vitro enzyme activity assay, fluorescence-based, TPH2 inhibition). Settings: read-out: IC50 TPH2 (μM) mean; recombinant human TPH2, 40 μM tryptophan, pH 7.0, mean of sample triplicates.
Chain of UniProt Q8IWU9 (Q8IWU9 whole entry): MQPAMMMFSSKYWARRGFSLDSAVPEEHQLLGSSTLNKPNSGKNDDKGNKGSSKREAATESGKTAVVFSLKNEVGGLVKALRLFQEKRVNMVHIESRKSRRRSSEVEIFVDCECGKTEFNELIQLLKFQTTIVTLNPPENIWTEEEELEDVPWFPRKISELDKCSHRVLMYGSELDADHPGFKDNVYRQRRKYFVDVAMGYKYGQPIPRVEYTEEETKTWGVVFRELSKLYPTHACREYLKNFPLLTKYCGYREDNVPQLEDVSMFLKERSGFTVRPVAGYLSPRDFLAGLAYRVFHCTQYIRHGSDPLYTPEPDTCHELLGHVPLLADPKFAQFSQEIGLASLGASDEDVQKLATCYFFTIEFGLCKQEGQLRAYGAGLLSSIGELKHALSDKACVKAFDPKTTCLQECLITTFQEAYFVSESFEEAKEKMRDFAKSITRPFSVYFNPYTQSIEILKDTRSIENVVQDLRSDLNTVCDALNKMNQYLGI
`CCn1c(=O)[nH]c(=O)c2c1nc(Cc1cn3c(n1)CCCC3)n2Cc1ccc(N2CCCC2=O)cc1` [Ex. 36, 3-ethyl-7-(4-(2-oxopyrrolidin-1-yl)benzyl)-8-((5,6,7,8-tetrahydroimidazo[1,2-a]pyridin-2-yl)methyl)-3,7-dihydro-1H-purine-2,6-dione] was tested, and the IC50 was 0.03 µM. For `CCn1c(=O)[nH]c(=O)c2c1nc(Cc1cn3c(n1)CCCC3)n2Cc1ccc(N2CC(F)(F)C2)cc1` [Ex. 37, 7-(4-(3,3-difluoroazetidin-1-yl)benzyl)-3-ethyl-8-((5,6,7,8-tetrahydroimidazo[1,2-a]pyridin-2-yl)methyl)-3,7-dihydro-1H-purine-2,6-dione], the IC50 was 0.032 µM. `CCn1c(=O)[nH]c(=O)c2c1nc(Cc1cn3c(n1)CCCC3)n2Cc1ccc(N2CC(OC)C2)cc1` [Ex. 38, 3-ethyl-7-(4-(3-methoxyazetidin-1-yl)benzyl)-8-((5,6,7,8-tetrahydroimidazo[1,2-a]pyridin-2-yl)methyl)-3,7-dihydro-1H-purine-2,6-dione] gave an IC50 of 0.035 µM. Work on `CCn1c(=O)[nH]c(=O)c2c1nc(Cc1cn3c(n1)CCCC3)n2Cc1ccc(-c2noc(C)n2)cc1` [Ex. 39, 3-ethyl-7-(4-(5-methyl-1,2,4-oxadiazol-3-yl)benzyl)-8-((5,6,7,8-tetrahydroimidazo[1,2-a]pyridin-2-yl)methyl)-3,7-dihydro-1H-purine-26-dione] yielded an IC50 of 0.026 µM.

From patent publication US10683309B2, “Xanthine derivatives, their use as a medicament, and pharmaceutical preparations comprising the same” (MAX-DELBRÜCK-CENTRUM FÜR MOLEKULARE MEDIZIN, priority 2016, dated 2020)
